The values below come from patent publication US20150210767A1 (GlaxoSmithKline, published 2015).

A value given as a limit tells only on which side of the number the result lay.

For assay [1], the target named is T1, biotinylated recombinant human soluble TNFR1 (human, UniProt P19438 30-211, biotinylated (EZ-Link Sulfo-NHS-LC-Biotin), sites not stated).
T1 construct: extracellular domain; Captured on a streptavidin BIAcore chip; also called human sTNFR1; sTNFR1
T1 sequence (looked up): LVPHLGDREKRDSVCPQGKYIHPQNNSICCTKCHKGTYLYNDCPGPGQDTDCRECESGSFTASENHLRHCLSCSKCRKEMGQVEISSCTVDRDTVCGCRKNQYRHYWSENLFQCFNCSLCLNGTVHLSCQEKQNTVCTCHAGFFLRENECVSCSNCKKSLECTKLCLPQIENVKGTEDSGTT
In words: BIAcore (SPR), biotinylated human sTNFR1 on SA chip, dAb injected. As for the experimental part:
(§1) To confirm the increase in accelerated stability four novel dAbs were also characterised according to the more extensive protocol described in example 1. In this protocol, the dAbs are incubated up to 48 h at 40° C., centrifuged and the remaining dAb in solution quantified using OD₂₈₀. […] To verify that the increase in stability is not at the expense of functional anti-TNFR1 activity of the dAb, the binding affinity to TNFR1 of the dAbs was determined by BIAcore, using biotinylated TNFR1 captured on a BIAcore SA chip. […] Therefore, these dAbs combine an increase in accelerated stability without compromising much on the affinity of the dAb for TNFR1.
TABLE 7 Accelerated stability and affinity for human sTNFR1 for novel anti-TNFR1 dAbs. Purified dAb was incubated at 1 mg/ml in PBS at 40° C. for the indicated amounts of time. After that time, the percentage of residual protein in solution was determined by OD280 determination. Affinity for sTNFR1 was determined by BIAcore using coated sTNFR1 and injecting the dAb as described.

Assay [2] deals with T1, biotinylated recombinant human soluble …. In words: BIAcore (SPR), biotinylated TNFR1 on SA chip; reference value of DOM1h-574-156 (150 pM) described previously. As for the experimental part: as §1
In general terms: In SPR one partner is held on a chip, and binding of the other changes the refractive index at the surface.

The target in assay [3] is T2, human TNFR1 on human umbilical vein endothelial cells (HUVECs) (human, UniProt P19438 30-455).
T2 sequence (looked up): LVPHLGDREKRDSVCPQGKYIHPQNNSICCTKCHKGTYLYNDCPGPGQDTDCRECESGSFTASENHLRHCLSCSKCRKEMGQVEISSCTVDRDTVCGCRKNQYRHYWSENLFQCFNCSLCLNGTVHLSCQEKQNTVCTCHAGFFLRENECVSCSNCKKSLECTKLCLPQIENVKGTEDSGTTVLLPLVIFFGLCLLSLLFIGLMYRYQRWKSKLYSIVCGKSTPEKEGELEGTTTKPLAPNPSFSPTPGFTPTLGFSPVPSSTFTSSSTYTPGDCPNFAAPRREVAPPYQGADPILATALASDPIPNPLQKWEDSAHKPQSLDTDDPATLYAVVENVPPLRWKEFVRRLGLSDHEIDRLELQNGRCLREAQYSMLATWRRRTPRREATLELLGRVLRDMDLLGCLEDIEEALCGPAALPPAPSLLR
In words: cell-based or functional assay.

For assay [4], the target named is T1, biotinylated recombinant human soluble …. In words: BIAcore (SPR), biotinylated human TNFR1 on streptavidin chip, fusion injected, mean of two experiments ± SD. As for the experimental part:
The affinity of the anti-TNFR1/AlbudAb fusions for human TNFR1 was determined by BIAcore. Briefly, the anti-TNFR1 molecules were injected over a streptavidin BIAcore chip on which biotinylated, human TNFR1 had been immobilised. Association and dissociation were determined at different concentrations of injected anti-TNFR1. […] The affinity for human TNFR1 as determined by BIAcore of the anti-TNFR1/AlbudAb fusion is slightly higher to that determined for the single anti-TNFR1 dAb used in each of the combination constructs.
The binding affinities for binding to recombinant human TNFR1 were assessed by BIAcore™ analysis. Analysis was carried out using Streptavidin coated (SA) chips (BIAcore, cat no. BR-1000-32). An SA chip was coated at low density using biotinylated hTNFR1. Examined molecules were injected over this surface at […] concentrations, i.e. 32, 16 (twice), 8, 4, 2, 1 and 0.5 nM, in random order using a flow rate of 50 μl/min. Between individual injections the surface was regenerated back to baseline using 10 mM glycine pH 2.0. Data were corrected for instrument artefacts using double referencing. Experiments were carried out on a BIAcore™ 3000 machine and data were analysed using the BIAevaluation software version 4.1, kₒₙ and koff were simultaneously fitted using 1:1 Langmuir binding model. […] All KD values were calculated from kₒₙ and koff rates. […]

B1: DOM1h-574-208 (VHH)
VHH: EVQLLESGGGLVQPGGSLRLSCAASGFTFDKYSMGWVRQAPGKGLEWVSQISDTADRTYYAH[about 20 residues left out here]MNSLRAEDTAVYYCAIYTGRWVPFEYWGQGTLVTVSS
notes: Human VH immunoglobulin single variable domain (dAb), not camelid; Monomer cloned in pDOM13 for expression in E. coli; also called anti-TNFR1 dAb DOM1h-574-208
As usually defined, the Kd is the constant that tells how readily two partners part at equilibrium. As for B1, in assay [1], the dissociation constant (Kd) was 0.27 nM. In assay [2], the “fold change of affinity against the parent dAb DOM1h-574-156” value was ≤ 4 fold.

B2: DMS5541 (bispecific antibody)
chain: EVQLLESGGGLVQPGGSLRLSCAASGFTFDKYSMGWVRQAPGKGLEWVSQISDTADRTYYAH[about 20 residues left out here]MNSLRAEDTAVYYCAIYTGRWVPFEYWGQGTLVTVSSASTDIQMTQSPSSLSASVGDRVTITCRASRPIGTTLSWYQQKPGKAPKLLILWNSRLQSGVPSRFSGSGSGTDFTLTISSLQPEDFATYYCAQAGTHPTTFGQGTKVEIKR
notes: Single-chain genetic fusion of the anti-TNFR1 VH dAb DOM1h-574-208, linker AST and the anti-serum albumin Vk dAb DOM7h-11-3; also called DOM1h-574-208 - Ala-Ser-Thr - DOM7h-11-3; anti-TNFR1/AlbudAb fusion
In the case of B2, the “Mean EC50, inhibition of TNF-alpha-induced VCAM-1 expression in the HUVEC cell assay” value in assay [3] stood at 3.58 nM. In addition, the dissociation constant Kd in assay [4] was 0.163 nM.
